Source: the supplement of paper PMC8728848
This is one part of the list.

Tests used:
Test in all cases: glycan array binding signal (z-score within array); higher = stronger binding
Details in all cases: glycan notation: IUPAC condensed, linker removed
[1] = target: Gal(b1-4)Glc
In short: (§1)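 Arrays were curated from the Consortium for Functional Glycomics database, 3228 in total, and kept only where the protein sequence was available. Binding is expressed as a within-array Z-score. This score was averaged across arrays of the same protein sequence at different concentrations or buffers and across linkers, and negative values can be read as non-binding.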

[2] = target: Gal(b1-4)Glc6S
In short: as §1

[3] = target: Gal(b1-4)GlcNAc
In short: as §1

[4] = target: Gal(b1-4)GlcNAc(a1-6)Gal(b1-4)GlcNAc
In short: as §1

[5] = target: Gal(b1-4)GlcNAc(b1-2)Man
In short: as §1

[6] = target: Gal(b1-4)GlcNAc(b1-2)Man(a1-3)Man(b1-4)GlcNAc(b1-4)GlcNAc
In short: as §1

[7] = target: Gal(b1-4)GlcNAc(b1-2)Man(a1-3)[Gal(b1-4)GlcNAc(b1-2)Man(a1-6)]Man(b1-4)GlcNAc(b1-4)GlcNAc
In short: as §1

[8] = target: Gal(b1-4)GlcNAc(b1-2)Man(a1-3)[Gal(b1-4)GlcNAc(b1-2)Man(a1-6)]Man(b1-4)GlcNAc(b1-4)[Fuc(a1-6)]GlcNAc
In short: as §1

[9] = target: Gal(b1-4)GlcNAc(b1-2)Man(a1-3)[Gal(b1-4)GlcNAc(b1-2)Man(a1-6)][Gal(b1-4)GlcNAc(b1-4)]Man(b1-4)GlcNAc(b1-4)[Fuc(a1-6)]GlcNAc
In short: as §1

[10] = target: Gal(b1-4)GlcNAc(b1-2)Man(a1-3)[Gal(b1-4)GlcNAc(b1-2)Man(a1-6)][GlcNAc(b1-4)]Man(b1-4)GlcNAc(b1-4)[Fuc(a1-6)]GlcNAc
In short: as §1

[11] = target: Gal(b1-4)GlcNAc(b1-2)Man(a1-3)[GlcNAc(b1-2)Man(a1-6)]Man(b1-4)GlcNAc(b1-4)GlcNAc
In short: as §1

[12] = target: Gal(b1-4)GlcNAc(b1-2)Man(a1-3)[GlcNAc(b1-4)][Gal(b1-4)GlcNAc(b1-2)Man(a1-6)]Man(b1-4)GlcNAc(b1-4)GlcNAc
In short: as §1

[13] = target: Gal(b1-4)GlcNAc(b1-2)Man(a1-3)[Man(a1-6)]Man(b1-4)GlcNAc(b1-4)GlcNAc
In short: as §1

[14] = target: Gal(b1-4)GlcNAc(b1-2)Man(a1-6)Man(b1-4)GlcNAc(b1-4)GlcNAc
In short: as §1

[15] = target: Gal(b1-4)GlcNAc(b1-2)Man(a1-6)[GlcNAc(b1-2)Man(a1-3)]Man(b1-4)GlcNAc(b1-4)GlcNAc
In short: as §1

[16] = target: Gal(b1-4)GlcNAc(b1-2)Man(a1-6)[Man(a1-3)]Man(b1-4)GlcNAc(b1-4)GlcNAc
In short: as §1

[17] = target: Gal(b1-4)GlcNAc(b1-2)[Gal(b1-4)GlcNAc(b1-4)]Man(a1-3)[Gal(b1-4)GlcNAc(b1-2)Man(a1-6)]Man(b1-4)GlcNAc(b1-4)GlcNAc
In short: as §1

[18] = target: Gal(b1-4)GlcNAc(b1-2)[Gal(b1-4)GlcNAc(b1-4)]Man(a1-3)[Gal(b1-4)GlcNAc(b1-2)[Gal(b1-4)GlcNAc(b1-6)]Man(a1-6)]Man(b1-4)GlcNAc(b1-4)GlcNAc
In short: as §1

[19] = target: Gal(b1-4)GlcNAc(b1-2)[Gal(b1-4)GlcNAc(b1-4)]Man(a1-3)[GlcNAc(b1-4)][Gal(b1-4)GlcNAc(b1-2)Man(a1-6)]Man(b1-4)GlcNAc(b1-4)GlcNAc
In short: as §1

[20] = target: Gal(b1-4)GlcNAc(b1-2)[Gal(b1-4)GlcNAc(b1-4)]Man(a1-3)[GlcNAc(b1-4)][Gal(b1-4)GlcNAc(b1-2)[Gal(b1-4)GlcNAc(b1-6)]Man(a1-6)]Man(b1-4)GlcNAc(b1-4)GlcNAc
In short: as §1

[21] = target: Gal(b1-4)GlcNAc(b1-2)[Gal(b1-4)GlcNAc(b1-6)]Man(a1-6)[Gal(b1-4)GlcNAc(b1-2)Man(a1-3)]Man(b1-4)GlcNAc(b1-4)GlcNAc
In short: as §1

[22] = target: Gal(b1-4)GlcNAc(b1-2)[Gal(b1-4)GlcNAc(b1-6)]Man(a1-6)[Gal(b1-4)GlcNAc(b1-2)Man(a1-3)]Man(b1-4)GlcNAc(b1-4)[Fuc(a1-6)]GlcNAc
In short: as §1

[23] = target: Gal(b1-4)GlcNAc(b1-2)[Gal(b1-4)GlcNAc(b1-6)]Man(a1-6)[GlcNAc(b1-4)][Gal(b1-4)GlcNAc(b1-2)Man(a1-3)]Man(b1-4)GlcNAc(b1-4)GlcNAc
In short: as §1

[24] = target: Gal(b1-4)GlcNAc(b1-2)[Gal(b1-4)GlcNAc(b1-6)]Man(a1-6)[GlcNAc(b1-4)][Gal(b1-4)GlcNAc(b1-2)[Gal(b1-4)GlcNAc(b1-4)]Man(a1-3)]Man(b1-4)GlcNAc(b1-4)[Fuc(a1-6)]GlcNAc
In short: as §1

[25] = target: Gal(b1-4)GlcNAc(b1-3)Gal(b1-3)GalNAc
In short: as §1

[26] = target: Gal(b1-4)GlcNAc(b1-3)Gal(b1-3)GlcNAc
In short: as §1

[27] = target: Gal(b1-4)GlcNAc(b1-3)Gal(b1-4)Glc
In short: as §1

[28] = target: Gal(b1-4)GlcNAc(b1-3)Gal(b1-4)GlcNAc
In short: as §1

[29] = target: Gal(b1-4)GlcNAc(b1-3)Gal(b1-4)GlcNAc(b1-2)Man(a1-3)[Gal(b1-4)GlcNAc(b1-3)Gal(b1-4)GlcNAc(b1-2)Man(a1-6)]Man(b1-4)GlcNAc(b1-4)GlcNAc
In short: as §1

[30] = target: Gal(b1-4)GlcNAc(b1-3)Gal(b1-4)GlcNAc(b1-2)Man(a1-3)[Gal(b1-4)GlcNAc(b1-3)Gal(b1-4)GlcNAc(b1-2)Man(a1-6)]Man(b1-4)GlcNAc(b1-4)[Fuc(a1-6)]GlcNAc
In short: as §1

[31] = target: Gal(b1-4)GlcNAc(b1-3)Gal(b1-4)GlcNAc(b1-2)[Gal(b1-4)GlcNAc(b1-3)Gal(b1-4)GlcNAc(b1-6)]Man(a1-6)[Gal(b1-4)GlcNAc(b1-3)Gal(b1-4)GlcNAc(b1-2)Man(a1-3)]Man(b1-4)GlcNAc(b1-4)GlcNAc
In short: as §1

[32] = target: Gal(b1-4)GlcNAc(b1-3)Gal(b1-4)GlcNAc(b1-2)[Gal(b1-4)GlcNAc(b1-3)Gal(b1-4)GlcNAc(b1-6)]Man(a1-6)[Gal(b1-4)GlcNAc(b1-3)Gal(b1-4)GlcNAc(b1-2)Man(a1-3)]Man(b1-4)GlcNAc(b1-4)[Fuc(a1-6)]GlcNAc
In short: as §1

[33] = target: Gal(b1-4)GlcNAc(b1-3)Gal(b1-4)GlcNAc(b1-3)Gal(b1-4)GlcNAc
In short: as §1

[34] = target: Gal(b1-4)GlcNAc(b1-3)Gal(b1-4)GlcNAc(b1-3)Gal(b1-4)GlcNAc(b1-2)Man(a1-3)[Gal(b1-4)GlcNAc(b1-3)Gal(b1-4)GlcNAc(b1-3)Gal(b1-4)GlcNAc(b1-2)Man(a1-6)]Man(b1-4)GlcNAc(b1-4)GlcNAc
In short: as §1

[35] = target: Gal(b1-4)GlcNAc(b1-3)Gal(b1-4)GlcNAc(b1-3)Gal(b1-4)GlcNAc(b1-2)Man(a1-3)[Gal(b1-4)GlcNAc(b1-3)Gal(b1-4)GlcNAc(b1-3)Gal(b1-4)GlcNAc(b1-2)Man(a1-6)]Man(b1-4)GlcNAc(b1-4)[Fuc(a1-6)]GlcNAc
In short: as §1

[36] = target: Gal(b1-4)GlcNAc(b1-3)Gal(b1-4)GlcNAc(b1-3)Gal(b1-4)GlcNAc(b1-2)[Gal(b1-4)GlcNAc(b1-3)Gal(b1-4)GlcNAc(b1-3)Gal(b1-4)GlcNAc(b1-6)]Man(a1-6)[Gal(b1-4)GlcNAc(b1-3)Gal(b1-4)GlcNAc(b1-3)Gal(b1-4)GlcNAc(b1-2)Man(a1-3)]Man(b1-4)GlcNAc(b1-4)[Fuc(a1-6)]GlcNAc
In short: as §1

[37] = target: Gal(b1-4)GlcNAc(b1-3)Gal(b1-4)GlcNAc(b1-3)Gal(b1-4)GlcNAc(b1-3)Gal(b1-4)GlcNAc(b1-2)Man(a1-3)[Gal(b1-4)GlcNAc(b1-3)Gal(b1-4)GlcNAc(b1-3)Gal(b1-4)GlcNAc(b1-3)Gal(b1-4)GlcNAc(b1-2)Man(a1-6)]Man(b1-4)GlcNAc(b1-4)GlcNAc
In short: as §1

B1: PX9937J-pdi-523-26-523 (Parabacteroides distasonis) (protein)
chain: EPVSSISDANYWKSPDLFKAFNIGLHGLLRSQSSYNIFVLGEPRSDIYGDQPFGGEATQGVERFSYNTINAEFTGISNFANFYTTLNQINLMIRRTNETDLLGEAEKNYYLGQAYGLRAYIYFHLLRSWGDVIITTEPTLGSELDISHLDKAASPASEVMDLIKKDIDASEKAFGGDYSYKQGKCYWSKPATLMLKGEVYLWSGRQMGGGTGDYTVAKTALQDLQQNGNLKLQEKFTDVFSFNNKENSEMIFALHSGKEDDFMMWRDYNWRNNMVPQREYMAGYCDETGTPFLEIPGYNLQGLMRYQVKKDHYLKSFREGDTRLKGTLKAVYKKHEDGTLEYIAPIQYKFQGTTLEGSNERSWYDDYPIYRYADALLLLAEAKALLGEDPSTEINAVRERAYGSEYFNAHKNEVAYPNDKGSFYNDNPFEAGDENVMEAILKERLREFFFEGKRWYDLRRFGKDYVLKYTTAQESRLLWPINEGALTNNPALKQTPGY
For B1, the “glycan array binding signal (z-score)” value [1] was -0.269, the “glycan array binding signal (z-score)” value [2] was -0.421 and the “glycan array binding signal (z-score)” value [3] was 0.078. For the same binder, the “glycan array binding signal (z-score)” value [4] was -0.341, the “glycan array binding signal (z-score)” value [5] was 0.302 and the “glycan array binding signal (z-score)” value [6] was -0.69. The “glycan array binding signal (z-score)” value [7] was -0.105, the “glycan array binding signal (z-score)” value [8] was 0.382 and the “glycan array binding signal (z-score)” value [9] was 0.15. For the same binder, the “glycan array binding signal (z-score)” value [10] was -0.8, the “glycan array binding signal (z-score)” value [11] was -0.573 and the “glycan array binding signal (z-score)” value [12] was -0.132. For the same binder, the “glycan array binding signal (z-score)” value [13] was -0.499, the “glycan array binding signal (z-score)” value [14] was -0.278 and the “glycan array binding signal (z-score)” value [15] was 0.751. The “glycan array binding signal (z-score)” value [16] was -0.396, the “glycan array binding signal (z-score)” value [17] was -0.494 and the “glycan array binding signal (z-score)” value [18] was 0.029. For the same binder, the “glycan array binding signal (z-score)” value [19] was -0.87, the “glycan array binding signal (z-score)” value [20] was -0.194 and the “glycan array binding signal (z-score)” value [21] was 0.284. The “glycan array binding signal (z-score)” value [22] was 1.86, the “glycan array binding signal (z-score)” value [23] was 0.532 and the “glycan array binding signal (z-score)” value [24] was 0.353. The “glycan array binding signal (z-score)” value [25] was -0.055, the “glycan array binding signal (z-score)” value [26] was 0.59 and the “glycan array binding signal (z-score)” value [27] was 0.002. For the same binder, the “glycan array binding signal (z-score)” value [28] was -0.225, the “glycan array binding signal (z-score)” value [29] was 1.25 and the “glycan array binding signal (z-score)” value [30] was -0.245. For the same binder, the “glycan array binding signal (z-score)” value [31] was 10.4, the “glycan array binding signal (z-score)” value [32] was 0.551 and the “glycan array binding signal (z-score)” value [33] was -0.378. For the same binder, the “glycan array binding signal (z-score)” value [34] was 0.115, the “glycan array binding signal (z-score)” value [35] was 0.211 and the “glycan array binding signal (z-score)” value [36] was 2.37. For the same binder, the “glycan array binding signal (z-score)” value [37] was 0.62.
